From the supplement of paper PMC8728848
The list shows a part of the results.

Key:
Assay in all cases: glycan array binding signal (z-score within array); higher = stronger binding
Conditions in all cases: glycan notation: IUPAC condensed, linker removed
[1] = target: GlcNAc(b1-4)GlcNAc(b1-4)GlcNAc(b1-4)GlcNAc(b1-4)GlcNAc
How it was run: (§1)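 From the Consortium for Functional Glycomics database, 3228 arrays were curated, keeping only those whose protein sequence was available. Binding is given as a within-array Z-score averaged across arrays sharing a protein sequence and across linkers. Negative Z-scores can be read as non-binding.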

[2] = target: GlcNAc(b1-4)GlcNAc(b1-4)GlcNAc(b1-4)GlcNAc(b1-4)GlcNAc(b1-4)GlcNAc
How it was run: as §1

[3] = target: GlcNAc(b1-4)[GlcNAc(b1-6)]GalNAc
How it was run: as §1

[4] = target: GlcNAc(b1-6)Gal(b1-4)GlcNAc
How it was run: as §1

GlcNAc(b1-6)GalNAc = target: GlcNAc(b1-6)GalNAc
How it was run: as §1

[5] = target: GlcNAc6S(b1-3)Gal(b1-4)GlcNAc
How it was run: as §1

Kdn(a2-3)Gal(b1-3)GalNAc = target: Kdn(a2-3)Gal(b1-3)GalNAc
How it was run: as §1

Kdn(a2-3)Gal(b1-3)GlcNAc = target: Kdn(a2-3)Gal(b1-3)GlcNAc
How it was run: as §1

Kdn(a2-3)Gal(b1-4)Glc = target: Kdn(a2-3)Gal(b1-4)Glc
How it was run: as §1

Kdn(a2-3)Gal(b1-4)GlcNAc = target: Kdn(a2-3)Gal(b1-4)GlcNAc
How it was run: as §1

[6] = target: Kdn(a2-3)Gal(b1-4)[Fuc(a1-3)]GlcNAc
How it was run: as §1

Kdn(a2-6)Gal(b1-4)GlcNAc = target: Kdn(a2-6)Gal(b1-4)GlcNAc
How it was run: as §1

[7] = target: Man(a1-2)Man(a1-2)Man(a1-3)Man
How it was run: as §1

[8] = target: Man(a1-2)Man(a1-2)Man(a1-6)[Man(a1-3)]Man
How it was run: as §1

Man(a1-2)Man(a1-3)Man = target: Man(a1-2)Man(a1-3)Man
How it was run: as §1

[9] = target: Man(a1-2)Man(a1-3)[Man(a1-2)Man(a1-6)]Man
How it was run: as §1

[10] = target: Man(a1-2)Man(a1-3)[Man(a1-2)Man(a1-6)]Man(a1-6)[Man(a1-2)Man(a1-2)Man(a1-3)]Man
How it was run: as §1

[11] = target: Man(a1-2)Man(a1-3)[Man(a1-2)Man(a1-6)]Man(a1-6)[Man(a1-2)Man(a1-2)Man(a1-3)]Man(b1-4)GlcNAc(b1-4)GlcNAc
How it was run: as §1

[12] = target: Man(a1-2)Man(a1-3)[Man(a1-6)]Man(a1-6)[Man(a1-2)Man(a1-3)]Man(b1-4)GlcNAc(b1-4)GlcNAc
How it was run: as §1

[13] = target: Man(a1-2)Man(a1-6)[Man(a1-3)]Man(a1-6)[Man(a1-2)Man(a1-2)Man(a1-3)]Man
How it was run: as §1

[14] = target: Man(a1-2)Man(a1-6)[Man(a1-3)]Man(a1-6)[Man(a1-2)Man(a1-2)Man(a1-3)]Man(b1-4)GlcNAc(b1-4)GlcNAc
How it was run: as §1

Man(a1-3)[Man(a1-6)]Man = target: Man(a1-3)[Man(a1-6)]Man
How it was run: as §1

[15] = target: Man(a1-3)[Man(a1-6)]Man(a1-6)[Man(a1-2)Man(a1-3)]Man(b1-4)GlcNAc(b1-4)GlcNAc
How it was run: as §1

[16] = target: Man(a1-3)[Man(a1-6)]Man(a1-6)[Man(a1-3)]Man
How it was run: as §1

[17] = target: Man(a1-3)[Man(a1-6)]Man(a1-6)[Man(a1-3)]Man(b1-4)GlcNAc(b1-4)GlcNAc
How it was run: as §1

[18] = target: Man(a1-3)[Man(a1-6)]Man(b1-4)GlcNAc(b1-4)GlcNAc
How it was run: as §1

[19] = target: Man(a1-3)[Man(a1-6)]Man(b1-4)GlcNAc(b1-4)[Fuc(a1-6)]GlcNAc
How it was run: as §1

Man(a1-6)Man = target: Man(a1-6)Man
How it was run: as §1

Man(b1-4)GlcNAc = target: Man(b1-4)GlcNAc
How it was run: as §1

MurNAc(b1-4)GlcNAc = target: MurNAc(b1-4)GlcNAc
How it was run: as §1

Neu5Ac(a2-3)Gal = target: Neu5Ac(a2-3)Gal
How it was run: as §1

[20] = target: Neu5Ac(a2-3)Gal(b1-3)GalNAc
How it was run: as §1

[21] = target: Neu5Ac(a2-3)Gal(b1-3)GalNAc(b1-3)Gal(a1-4)Gal(b1-4)Glc
How it was run: as §1

[22] = target: Neu5Ac(a2-3)Gal(b1-3)GalNAc(b1-4)[Neu5Ac(a2-3)]Gal(b1-4)Glc
How it was run: as §1

[23] = target: Neu5Ac(a2-3)Gal(b1-3)GalNAc(b1-4)[Neu5Ac(a2-8)Neu5Ac(a2-3)]Gal(b1-4)Glc
How it was run: as §1

[24] = target: Neu5Ac(a2-3)Gal(b1-3)GalNAc6S
How it was run: as §1

[25] = target: Neu5Ac(a2-3)Gal(b1-3)GlcNAc
How it was run: as §1

[26] = target: Neu5Ac(a2-3)Gal(b1-3)GlcNAc(b1-2)Man
How it was run: as §1

[27] = target: Neu5Ac(a2-3)Gal(b1-3)GlcNAc(b1-2)Man(a1-3)[GlcNAc(b1-4)][Neu5Ac(a2-3)Gal(b1-3)GlcNAc(b1-2)Man(a1-6)]Man(b1-4)GlcNAc(b1-4)GlcNAc
How it was run: as §1

[28] = target: Neu5Ac(a2-3)Gal(b1-3)GlcNAc(b1-2)Man(a1-3)[Neu5Ac(a2-3)Gal(b1-3)GlcNAc(b1-2)Man(a1-6)]Man(b1-4)GlcNAc(b1-4)GlcNAc
How it was run: as §1

[29] = target: Neu5Ac(a2-3)Gal(b1-3)GlcNAc(b1-2)[Neu5Ac(a2-3)Gal(b1-3)GlcNAc(b1-4)]Man(a1-6)[Neu5Ac(a2-3)Gal(b1-3)GlcNAc(b1-2)Man(a1-3)]Man(b1-4)GlcNAc(b1-4)GlcNAc
How it was run: as §1

[30] = target: Neu5Ac(a2-3)Gal(b1-3)GlcNAc(b1-3)Gal(b1-3)GlcNAc
How it was run: as §1

[31] = target: Neu5Ac(a2-3)Gal(b1-3)GlcNAc(b1-3)Gal(b1-4)GlcNAc
How it was run: as §1

[32] = target: Neu5Ac(a2-3)Gal(b1-3)GlcNAc(b1-3)GalNAc
How it was run: as §1

[33] = target: Neu5Ac(a2-3)Gal(b1-3)GlcNAc(b1-4)Gal(b1-4)Glc
How it was run: as §1

B1: MGL (Homo sapiens), Q8IUN9 (protein)
chain: MTRTYENFQYLENKVKVQGFKNGPLPLQSLLQRLCSGPCHLLLSLGLGLLLLVIICVVGFQNSKFQRDLVTLRTDFSNFTSNTVAEIQALTSQGSSLEETIASLKAEVEGFKQERQAGVSELQEHTTQKAHLGHCPHCPSVCVPVHSEMLLRVQQLVQDLKKLTCQVATLNNNASTEGTCCPVNWVEHQDSCYWFSHSGMSWAEAEKYCQLKNAHLVVINSREEQNFVQKYLGSAYTWMGLSDPEGAWKWVDGTDYATGFQNWKPGQPDDWQGHGLGGGEDCAHFHPDGRWNDDVCQRPYHWVCEAGLGQTSQESH
With B1 as the binder, how does the “glycan array binding signal (z-score)” value [1] read?
Its value is -0.238.

And the “glycan array binding signal (z-score)” value [2]?
The value was -0.252.

What about the “glycan array binding signal (z-score)” value [3] of the same binder?
The value was -0.245.

And the “glycan array binding signal (z-score)” value [4]?
The value was -0.239.

And the “glycan array binding signal (z-score)” value (GlcNAc(b1-6)GalNAc)?
The value was 4.7.

What about the “glycan array binding signal (z-score)” value [5] of the same binder?
The value was -0.244.

What about the “glycan array binding signal (z-score)” value (Kdn(a2-3)Gal(b1-3)GalNAc) of the same binder?
The value was -0.238.

And the “glycan array binding signal (z-score)” value (Kdn(a2-3)Gal(b1-3)GlcNAc)?
Its value is -0.239.

What about the “glycan array binding signal (z-score)” value (Kdn(a2-3)Gal(b1-4)Glc) of the same binder?
The value was -0.246.

What about the “glycan array binding signal (z-score)” value (Kdn(a2-3)Gal(b1-4)GlcNAc) of the same binder?
Its value is -0.237.

What about the “glycan array binding signal (z-score)” value [6] of the same binder?
The value was -0.247.

And the “glycan array binding signal (z-score)” value (Kdn(a2-6)Gal(b1-4)GlcNAc)?
Its value is -0.245.

And the “glycan array binding signal (z-score)” value [7]?
Its value is -0.257.

What about the “glycan array binding signal (z-score)” value [8] of the same binder?
Its value is -0.248.

And the “glycan array binding signal (z-score)” value (Man(a1-2)Man(a1-3)Man)?
The value was -0.252.

And the “glycan array binding signal (z-score)” value [9]?
The value was -0.239.

What about the “glycan array binding signal (z-score)” value [10] of the same binder?
The value was -0.242.

What about the “glycan array binding signal (z-score)” value [11] of the same binder?
The value was -0.252.

And the “glycan array binding signal (z-score)” value [12]?
The value was -0.247.

What about the “glycan array binding signal (z-score)” value [13] of the same binder?
The value was -0.25.

What about the “glycan array binding signal (z-score)” value [14] of the same binder?
The value was -0.25.

What about the “glycan array binding signal (z-score)” value (Man(a1-3)[Man(a1-6)]Man) of the same binder?
The value was -0.236.

What about the “glycan array binding signal (z-score)” value [15] of the same binder?
The value was -0.102.

What about the “glycan array binding signal (z-score)” value [16] of the same binder?
The value was -0.246.

What about the “glycan array binding signal (z-score)” value [17] of the same binder?
Its value is -0.248.

What about the “glycan array binding signal (z-score)” value [18] of the same binder?
The value was -0.256.

And the “glycan array binding signal (z-score)” value [19]?
The value was -0.24.

What about the “glycan array binding signal (z-score)” value (Man(a1-6)Man) of the same binder?
The value was -0.248.

And the “glycan array binding signal (z-score)” value (Man(b1-4)GlcNAc)?
The value was -0.237.

What about the “glycan array binding signal (z-score)” value (MurNAc(b1-4)GlcNAc) of the same binder?
Its value is -0.241.

And the “glycan array binding signal (z-score)” value (Neu5Ac(a2-3)Gal)?
Its value is -0.251.

What about the “glycan array binding signal (z-score)” value [20] of the same binder?
Its value is -0.241.

And the “glycan array binding signal (z-score)” value [21]?
The value was -0.243.

And the “glycan array binding signal (z-score)” value [22]?
The value was -0.251.

What about the “glycan array binding signal (z-score)” value [23] of the same binder?
Its value is -0.245.

And the “glycan array binding signal (z-score)” value [24]?
Its value is -0.245.

What about the “glycan array binding signal (z-score)” value [25] of the same binder?
Its value is -0.243.

And the “glycan array binding signal (z-score)” value [26]?
The value was -0.252.

And the “glycan array binding signal (z-score)” value [27]?
The value was -0.245.

What about the “glycan array binding signal (z-score)” value [28] of the same binder?
Its value is -0.248.

And the “glycan array binding signal (z-score)” value [29]?
The value was -0.233.

What about the “glycan array binding signal (z-score)” value [30] of the same binder?
Its value is -0.253.

What about the “glycan array binding signal (z-score)” value [31] of the same binder?
Its value is -0.252.

And the “glycan array binding signal (z-score)” value [32]?
The value was -0.252.

And the “glycan array binding signal (z-score)” value [33]?
The value was -0.251.
